Assay results: article PMC4336329 (PLoS ONE, 2015)
The whole screen tested about 310,000 compounds, of which about 14,000 (4.5%) showed an effect of 50% or more. The effect is printed as a negative number. This is one part of the list.

Each molecule was assayed against human ether-à-go-go-related gene (hERG) potassium channel (human, UniProt Q12809) (assay: primary screen, population patch clamp on CHO cells stably expressing hERG).
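Also: peak tail current of the secondary pulse compared with the same well before compound.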

Sequence of human ether-à-go-go-related gene (hERG) potassium channel (Q12809 whole entry, looked up): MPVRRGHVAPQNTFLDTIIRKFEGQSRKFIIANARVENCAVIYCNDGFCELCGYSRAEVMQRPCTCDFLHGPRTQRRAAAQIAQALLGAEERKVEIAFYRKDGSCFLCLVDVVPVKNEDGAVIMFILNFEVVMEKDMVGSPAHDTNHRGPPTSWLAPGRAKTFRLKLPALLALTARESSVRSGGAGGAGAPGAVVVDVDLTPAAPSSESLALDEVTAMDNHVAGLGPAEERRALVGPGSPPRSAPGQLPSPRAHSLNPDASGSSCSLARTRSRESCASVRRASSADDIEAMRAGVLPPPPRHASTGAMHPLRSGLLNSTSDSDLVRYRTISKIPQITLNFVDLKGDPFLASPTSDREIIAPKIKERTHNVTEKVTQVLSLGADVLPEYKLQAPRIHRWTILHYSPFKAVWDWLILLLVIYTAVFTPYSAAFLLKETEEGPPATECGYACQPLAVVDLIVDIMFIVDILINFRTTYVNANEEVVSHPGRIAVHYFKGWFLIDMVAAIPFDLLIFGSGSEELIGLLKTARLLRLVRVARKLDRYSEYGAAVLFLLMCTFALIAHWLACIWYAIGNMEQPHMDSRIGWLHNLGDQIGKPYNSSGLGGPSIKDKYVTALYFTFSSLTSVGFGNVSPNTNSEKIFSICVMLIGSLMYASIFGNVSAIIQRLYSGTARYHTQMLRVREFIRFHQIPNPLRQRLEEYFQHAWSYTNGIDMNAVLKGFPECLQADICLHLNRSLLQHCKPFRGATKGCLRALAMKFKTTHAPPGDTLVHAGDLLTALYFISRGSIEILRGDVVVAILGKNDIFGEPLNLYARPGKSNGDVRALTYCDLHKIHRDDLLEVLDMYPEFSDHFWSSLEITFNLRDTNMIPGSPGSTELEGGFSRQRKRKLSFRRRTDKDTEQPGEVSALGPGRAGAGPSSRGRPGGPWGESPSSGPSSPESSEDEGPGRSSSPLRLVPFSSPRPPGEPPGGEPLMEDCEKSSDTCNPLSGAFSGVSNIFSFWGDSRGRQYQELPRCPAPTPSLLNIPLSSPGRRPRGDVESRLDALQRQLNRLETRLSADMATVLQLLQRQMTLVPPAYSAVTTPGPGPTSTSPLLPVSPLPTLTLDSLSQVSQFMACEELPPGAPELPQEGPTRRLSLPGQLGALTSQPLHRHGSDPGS

| Compound | hERG current change (%, negative = inhibition) at 10uM |
| --- | --- |
| COC(=O)C(NC=O)C(O)(Cc1ccccc1)C(F)(F)F (stereo not shown) | 0.47% |
| O=C(N1CCCC1)C12CC3CCC(CC(C3)C1)C2 | 15.6% |
| CCOc1ccc(NC(=O)CCCn2c(=S)[nH]c3ccsc3c2=O)cc1 | 1.72% |
| O=C(Cn1cncn1)N/N=C/c1cccc(Cl)c1 | 16.3% |
| COC(=O)C1=C(c2ccc(F)cc2OCc2ccccc2)C[C@@H]2CC[C@H]1N2C(=O)NCCNC(C)=O | 0.67% |
| Cc1cc(C)n(/N=C/c2ccc(C(C)C)cc2)c(=O)c1C#N | 1.93% |
| CN(C)S(=O)(=O)Oc1cccc(C(=O)Nc2cccc(Cl)c2)c1 | -15.5% |
| CSc1ncccc1C(=O)OCc1c(F)cccc1Cl | -9.65% |
| Cc1ccc(-c2cc(C(=O)N3CCN(C(=O)c4ccco4)CC3)[nH]n2)cc1C | 5.83% |
| CN(Cc1ccccc1)C(=O)COc1ccccc1Cl | -0.368% |
| O=C(Nc1ccc(S(=O)(=O)Nc2ncccn2)cc1)C1=COCCO1 | -11.7% |
| CCCC(=O)Nc1cccc(NC(=S)NC(=O)C(C)Oc2ccc(Cl)cc2Cl)c1 (stereo not shown) | -3.45% |
| CCC(=O)NC(=S)Nc1ccc(NC(=O)c2ccc(C)c([N+](=O)[O-])c2)cc1 | 12.8% |
| C/C(=N\NC(N)=O)c1ccccc1Cl | -2.39% |
| Cc1nnc(SCc2ccccn2)n(N)c1=O | 6.25% |
| CCOC(=O)N1CCC(c2[nH][nH]c(=O)c2C)CC1 | 16.2% |
| O=C(CN(C(=O)Cn1nnc(-c2cccs2)n1)c1ccc2c(c1)OCCO2)NCc1ccccc1 | -9.67% |
| C1COCCNCCOCCOCCN1 | -1.7% |
| CCOC(=O)c1nnn(-c2nonc2N)c1CNc1ccccc1 | -16.2% |
| O=C(NCc1ccc2c(c1)OCO2)c1nn(-c2ccccc2)c(=O)c2ccccc12 | -35.1% |

| Compound | hERG current change (%, negative = inhibition) at 10uM |
| --- | --- |
| Cn1c(COc2ccc(Cl)cc2)nnc1SCc1ncc(-c2ccccc2)o1 | -48.2% |
| CCOc1ccccc1NC(=O)c1cc(S(=O)(=O)NCc2ccco2)ccc1F | 1.68% |
| Cn1cc(C2CC(c3ccccc3)=NN2C(=O)c2ccccc2)c2ccccc21 (stereo not shown) | -8.16% |
| CC(=O)Nc1ccc(C(=O)N2CCN(S(=O)(=O)c3ccc4c(c3)OCCCO4)CC2)cc1 | 5.45% |
| CCC(C)(C)NC(=O)c1cc([N+](=O)[O-])ccc1N1CCCCC1 | -36.9% |
| COc1ccc(C2=NN(C(=O)COC(=O)c3ccc(NC(=O)CC#N)cc3)C(c3ccco3)C2)cc1 (stereo not shown) | 5.24% |
| COc1ccc(C2c3ccc(O)cc3Oc3ncn(CC(C)C)c(=N)c32)cc1 (stereo not shown) | -69.8% |
| CCC(=O)Nc1cccc(C2=NOC3(C2)C[C@@H](C(N)=O)N(C(=O)C2(C)CC2)C3)c1 (stereo partly shown) | 7.91% |
| Cc1cc(SCC(=O)N(C)C2CCS(=O)(=O)C2)nc2c(C)cccc12 (stereo not shown) | 21.2% |
| COc1ccc(CC(=O)NCC(C)(C)N2CCOCC2)cc1 | 23.6% |
| CN(C)C(=O)CCc1nc2sc3c(c2c(=O)[nH]1)CCCC3 | 10.1% |
| Cc1cc(C(=O)Nc2ccc(F)cc2C)cs1 | -15.6% |
| CN(/N=C/c1ccc(O)cc1O)c1nc(-c2ccccc2)cc(-c2ccccc2)n1 | 11% |
| Cc1cc(C)nc(N(C#N)S(=O)(=O)c2ccccc2)n1 | 13.8% |
| COc1cc(C(C)=O)ccc1OCCCOc1cccc2cccnc12 | -0.0533% |
| Cc1ccc(C(=O)c2coc3ccc(O)c(CN(C)C)c23)cc1.Cl | -54.7% |
| Cc1cc(C)n(CC(C)Nc2nc3nonc3nc2N2CCCCC2)n1 (stereo not shown) | -11.8% |
| CCOc1ccc(NC(=O)C2CCN(S(=O)(=O)c3c(C)noc3C)CC2)cc1 | -3.71% |
| COc1cc(-c2nc(C)c(C(C)=O)n2O)ccc1OCC(=O)Nc1ccc(Cl)cc1 | -5.19% |
| CCCS(=O)(=O)N1CCN=C1SCc1ccc(F)cc1 | 2.23% |

| Compound | hERG current change (%, negative = inhibition) at 10uM |
| --- | --- |
| CN(Cc1cnn(C)c1)C(=O)C1CCC(=O)N(C2CCCCCC2)C1 (stereo not shown) | 7.67% |
| Cc1nccn1CC(O)COC1CCCCC1 (stereo not shown) | 13% |
| CSc1sc(C(=O)NCC2CC2)cc1S(=O)(=O)C(C)C | 2.39% |
| CN(CC(=O)NCc1ccco1)CC(=O)Nc1c(Cl)cccc1Cl | -12.7% |
| CCCN1CCN(C(=S)Nc2ccccc2C(F)(F)F)CC1 | 0.283% |
| O=C(c1ccccc1F)N1CCN(c2cnn(-c3cccc(Cl)c3)c(=O)c2Cl)CC1 | -32.5% |
| COc1ccccc1NC(=O)Cn1c2ccccc2c2nc3n(c(=O)c21)CCS3 | 5.31% |
| CC(C)c1nnc(SCC(=O)N2CCOCC2)n1C | 12% |
| Cc1noc(C)c1COc1ccc(C(=O)N2CCN(S(=O)(=O)c3ccccc3)CC2)cc1 | -43% |
| O=C(N/N=C\c1cccc(Br)c1)c1ccccc1-n1cccc1 | 8.68% |
| Cc1oc(C(=O)O)cc1CSCc1cc(C(=O)O)c(C)o1 | 16% |
| CCS(=O)(=O)c1ccc(C(=O)Nc2ccccc2OC)c(Cl)c1Cl | 8.71% |
| CS(=O)CSc1nc2c(cc1C#N)CCCC2 (stereo not shown) | -25% |
| Cn1c(Cn2c(=O)sc3ccccc32)nnc1SCC(=O)Nc1cccc(F)c1 | 13.8% |
| Cc1ccc(NC(=O)CSc2nncc3ccccc23)cc1 | -11% |
| COc1cc(NC(=O)C2CCCCC2)c(OC)cc1NC(=O)c1ccccc1 | 16.6% |
| CC(C)c1nc(CN2CCCCC2)cc(=O)[nH]1 | 15.7% |
| Cc1ccc(NC(=O)c2cccc(S(=O)(=O)N3CCN(c4ccc(F)cc4)CC3)c2)nc1 | -14.6% |
